The list shows a part of the results.
How the values were obtained:
Experiment in all cases: glycan array binding signal (z-score within array); higher = stronger binding
Conditions in all cases: glycan notation: IUPAC condensed, linker removed
[1] = target: Neu5Ac(a2-3)Gal(b1-4)GlcNAc(b1-3)[Neu5Ac(a2-3)Gal(b1-4)GlcNAc(b1-6)]GalNAc
Summary of the method: (§1)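 Glycan array binding is given as a within-array Z-score, which can be read as non-binding when negative. The arrays, 3228 of them, came from the Consortium for Functional Glycomics database and were retained only where the protein sequence was available. Z-scores were averaged across arrays of the same protein sequence at different concentrations or buffers and across linkers.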

[2] = target: Neu5Ac(a2-3)Gal(b1-4)GlcNAc(b1-6)GalNAc
Summary of the method: as §1

[3] = target: Neu5Ac(a2-3)Gal(b1-4)GlcNAc(b1-6)[Gal(b1-3)]GalNAc
Summary of the method: as §1

[4] = target: Neu5Ac(a2-3)Gal(b1-4)GlcNAc(b1-6)[Neu5Ac(a2-3)Gal(b1-3)]GalNAc
Summary of the method: as §1

[5] = target: Neu5Ac(a2-3)Gal(b1-4)GlcNAc6S
Summary of the method: as §1

[6] = target: Neu5Ac(a2-3)Gal(b1-4)[Fuc(a1-3)]GlcNAc
Summary of the method: as §1

[7] = target: Neu5Ac(a2-3)Gal(b1-4)[Fuc(a1-3)]GlcNAc(b1-2)Man
Summary of the method: as §1

[8] = target: Neu5Ac(a2-3)Gal(b1-4)[Fuc(a1-3)]GlcNAc(b1-3)Gal
Summary of the method: as §1

[9] = target: Neu5Ac(a2-3)Gal(b1-4)[Fuc(a1-3)]GlcNAc(b1-3)Gal(b1-4)GlcNAc
Summary of the method: as §1

[10] = target: Neu5Ac(a2-3)Gal(b1-4)[Fuc(a1-3)]GlcNAc(b1-3)Gal(b1-4)[Fuc(a1-3)]GlcNAc(b1-3)Gal(b1-4)[Fuc(a1-3)]GlcNAc
Summary of the method: as §1

[11] = target: Neu5Ac(a2-3)Gal(b1-4)[Fuc(a1-3)]GlcNAc(b1-3)GalNAc
Summary of the method: as §1

[12] = target: Neu5Ac(a2-3)Gal(b1-4)[Fuc(a1-3)]GlcNAc(b1-6)[Gal(b1-3)]GalNAc
Summary of the method: as §1

[13] = target: Neu5Ac(a2-3)Gal(b1-4)[Fuc(a1-3)]GlcNAc(b1-6)[Neu5Ac(a2-3)Gal(b1-3)]GalNAc
Summary of the method: as §1

[14] = target: Neu5Ac(a2-3)Gal(b1-4)[Fuc(a1-3)]GlcNAc6S
Summary of the method: as §1

[15] = target: Neu5Ac(a2-3)Gal6S(b1-4)GlcNAc
Summary of the method: as §1

[16] = target: Neu5Ac(a2-3)Gal6S(b1-4)[Fuc(a1-3)]GlcNAc
Summary of the method: as §1

[17] = target: Neu5Ac(a2-3)GalNAc
Summary of the method: as §1

[18] = target: Neu5Ac(a2-3)GalNAc(b1-4)GlcNAc
Summary of the method: as §1

[19] = target: Neu5Ac(a2-3)[GalNAc(b1-4)]Gal(b1-4)Glc
Summary of the method: as §1

[20] = target: Neu5Ac(a2-3)[GalNAc(b1-4)]Gal(b1-4)GlcNAc
Summary of the method: as §1

[21] = target: Neu5Ac(a2-3)[GalNAc(b1-4)]Gal(b1-4)GlcNAc(b1-3)GalNAc
Summary of the method: as §1

[22] = target: Neu5Ac(a2-3)[Neu5Ac(a2-6)]GalNAc
Summary of the method: as §1

[23] = target: Neu5Ac(a2-6)Gal
Summary of the method: as §1

[24] = target: Neu5Ac(a2-6)Gal(b1-3)GlcNAc(b1-3)[Gal(b1-4)GlcNAc(b1-6)]Gal(b1-4)Glc
Summary of the method: as §1

[25] = target: Neu5Ac(a2-6)Gal(b1-4)Glc
Summary of the method: as §1

[26] = target: Neu5Ac(a2-6)Gal(b1-4)GlcNAc
Summary of the method: as §1

[27] = target: Neu5Ac(a2-6)Gal(b1-4)GlcNAc(b1-2)Man
Summary of the method: as §1

[28] = target: Neu5Ac(a2-6)Gal(b1-4)GlcNAc(b1-2)Man(a1-3)Man(b1-4)GlcNAc(b1-4)GlcNAc
Summary of the method: as §1

[29] = target: Neu5Ac(a2-6)Gal(b1-4)GlcNAc(b1-2)Man(a1-3)[Gal(b1-4)GlcNAc(b1-2)Man(a1-6)]Man(b1-4)GlcNAc(b1-4)GlcNAc
Summary of the method: as §1

[30] = target: Neu5Ac(a2-6)Gal(b1-4)GlcNAc(b1-2)Man(a1-3)[GlcNAc(b1-2)Man(a1-6)]Man(b1-4)GlcNAc(b1-4)GlcNAc
Summary of the method: as §1

[31] = target: Neu5Ac(a2-6)Gal(b1-4)GlcNAc(b1-2)Man(a1-3)[GlcNAc(b1-4)][Neu5Ac(a2-6)Gal(b1-4)GlcNAc(b1-2)Man(a1-6)]Man(b1-4)GlcNAc(b1-4)GlcNAc
Summary of the method: as §1

[32] = target: Neu5Ac(a2-6)Gal(b1-4)GlcNAc(b1-2)Man(a1-3)[Man(a1-6)]Man(b1-4)GlcNAc(b1-4)GlcNAc
Summary of the method: as §1

[33] = target: Neu5Ac(a2-6)Gal(b1-4)GlcNAc(b1-2)Man(a1-3)[Neu5Ac(a2-3)Gal(b1-4)GlcNAc(b1-2)Man(a1-6)]Man(b1-4)GlcNAc(b1-4)GlcNAc
Summary of the method: as §1

[34] = target: Neu5Ac(a2-6)Gal(b1-4)GlcNAc(b1-2)Man(a1-3)[Neu5Ac(a2-6)Gal(b1-4)GlcNAc(b1-2)Man(a1-6)]Man(b1-4)GlcNAc(b1-4)GlcNAc
Summary of the method: as §1

[35] = target: Neu5Ac(a2-6)Gal(b1-4)GlcNAc(b1-2)Man(a1-3)[Neu5Ac(a2-6)Gal(b1-4)GlcNAc(b1-2)Man(a1-6)]Man(b1-4)GlcNAc(b1-4)[Fuc(a1-6)]GlcNAc
Summary of the method: as §1

[36] = target: Neu5Ac(a2-6)Gal(b1-4)GlcNAc(b1-2)Man(a1-6)Man(b1-4)GlcNAc(b1-4)GlcNAc
Summary of the method: as §1

[37] = target: Neu5Ac(a2-6)Gal(b1-4)GlcNAc(b1-2)Man(a1-6)[Gal(b1-4)GlcNAc(b1-2)Man(a1-3)]Man(b1-4)GlcNAc(b1-4)GlcNAc
Summary of the method: as §1

[38] = target: Neu5Ac(a2-6)Gal(b1-4)GlcNAc(b1-2)Man(a1-6)[GlcNAc(b1-2)Man(a1-3)]Man(b1-4)GlcNAc(b1-4)GlcNAc
Summary of the method: as §1

[39] = target: Neu5Ac(a2-6)Gal(b1-4)GlcNAc(b1-2)Man(a1-6)[Man(a1-3)]Man(b1-4)GlcNAc(b1-4)GlcNAc
Summary of the method: as §1

[40] = target: Neu5Ac(a2-6)Gal(b1-4)GlcNAc(b1-2)[Neu5Ac(a2-6)Gal(b1-4)GlcNAc(b1-4)]Man(a1-3)[GlcNAc(b1-4)][Neu5Ac(a2-6)Gal(b1-4)GlcNAc(b1-2)[Neu5Ac(a2-6)Gal(b1-4)GlcNAc(b1-6)]Man(a1-6)]Man(b1-4)GlcNAc(b1-4)GlcNAc
Summary of the method: as §1

[41] = target: Neu5Ac(a2-6)Gal(b1-4)GlcNAc(b1-2)[Neu5Ac(a2-6)Gal(b1-4)GlcNAc(b1-4)]Man(a1-3)[GlcNAc(b1-4)][Neu5Ac(a2-6)Gal(b1-4)GlcNAc(b1-4)Man(a1-6)]Man(b1-4)GlcNAc(b1-4)GlcNAc
Summary of the method: as §1

[42] = target: Neu5Ac(a2-6)Gal(b1-4)GlcNAc(b1-2)[Neu5Ac(a2-6)Gal(b1-4)GlcNAc(b1-6)]Man(a1-6)[Neu5Ac(a2-6)Gal(b1-4)GlcNAc(b1-2)Man(a1-3)][GlcNAc(b1-4)]Man(b1-4)GlcNAc(b1-4)GlcNAc
Summary of the method: as §1

[43] = target: Neu5Ac(a2-6)Gal(b1-4)GlcNAc(b1-3)Gal(b1-3)GlcNAc
Summary of the method: as §1

[44] = target: Neu5Ac(a2-6)Gal(b1-4)GlcNAc(b1-3)Gal(b1-4)GlcNAc
Summary of the method: as §1

[45] = target: Neu5Ac(a2-6)Gal(b1-4)GlcNAc(b1-3)Gal(b1-4)GlcNAc(b1-2)Man(a1-3)[Neu5Ac(a2-6)Gal(b1-4)GlcNAc(b1-3)Gal(b1-4)GlcNAc(b1-2)Man(a1-6)]GalNAc
Summary of the method: as §1

B1: Sebin2 (Coprinopsis cinerea), A8PE78 (protein)
chain: MTTPFYAYCHNVQDDNTWRLGLVFANRSTADEWWRAISEATSSIPITKSITRVTPQYYTHDIRVWNMYNFFVDGNIKSISDKFRGRLFITLEYDRSGRGVSVFPPLHIVDHVSGNWYYIRSKTAPHLFWFYDETRNAIYASKEKRTRFKVSIRNPSPQTPKDAIMINSDDVVIHIKESLYVGVDSYLGHIIPTRAYRTFKFGELEGGAIAGIEVAENAEERCSSTFDGASLYFVGPDSSSPGEPWELV
In the case of B1, the “glycan array binding signal (z-score)” value [1] is reported as 0.119, the “glycan array binding signal (z-score)” value [2] is reported as -0.658 and the “glycan array binding signal (z-score)” value [3] is reported as 0.062. The “glycan array binding signal (z-score)” value [4] was -0.437, the “glycan array binding signal (z-score)” value [5] was -0.64 and the “glycan array binding signal (z-score)” value [6] was -0.437. For the same binder, the “glycan array binding signal (z-score)” value [7] was -0.292, the “glycan array binding signal (z-score)” value [8] was 0.089 and the “glycan array binding signal (z-score)” value [9] was 0.251. The “glycan array binding signal (z-score)” value [10] was -0.755, the “glycan array binding signal (z-score)” value [11] was -0.393 and the “glycan array binding signal (z-score)” value [12] was 0.156. The “glycan array binding signal (z-score)” value [13] was 0.011, the “glycan array binding signal (z-score)” value [14] was -0.302 and the “glycan array binding signal (z-score)” value [15] was -0.093. For the same binder, the “glycan array binding signal (z-score)” value [16] was -0.392, the “glycan array binding signal (z-score)” value [17] was -0.107 and the “glycan array binding signal (z-score)” value [18] was -0.137. For the same binder, the “glycan array binding signal (z-score)” value [19] was 0.058, the “glycan array binding signal (z-score)” value [20] was -0.295 and the “glycan array binding signal (z-score)” value [21] was -0.08. For the same binder, the “glycan array binding signal (z-score)” value [22] was -0.316, the “glycan array binding signal (z-score)” value [23] was 0.058 and the “glycan array binding signal (z-score)” value [24] was -0.616. For the same binder, the “glycan array binding signal (z-score)” value [25] was 0.071, the “glycan array binding signal (z-score)” value [26] was -0.242 and the “glycan array binding signal (z-score)” value [27] was 0.006. For the same binder, the “glycan array binding signal (z-score)” value [28] was 0.253, the “glycan array binding signal (z-score)” value [29] was -0.075 and the “glycan array binding signal (z-score)” value [30] was -0.135. For the same binder, the “glycan array binding signal (z-score)” value [31] was -0.221, the “glycan array binding signal (z-score)” value [32] was -0.012 and the “glycan array binding signal (z-score)” value [33] was 0.063. For the same binder, the “glycan array binding signal (z-score)” value [34] was -0.343, the “glycan array binding signal (z-score)” value [35] was -0.2 and the “glycan array binding signal (z-score)” value [36] was 0.26. For the same binder, the “glycan array binding signal (z-score)” value [37] was -0.138, the “glycan array binding signal (z-score)” value [38] was -0.064 and the “glycan array binding signal (z-score)” value [39] was 0.237. For the same binder, the “glycan array binding signal (z-score)” value [40] was -0.202, the “glycan array binding signal (z-score)” value [41] was -0.054 and the “glycan array binding signal (z-score)” value [42] was 0.025. The “glycan array binding signal (z-score)” value [43] was -0.296, the “glycan array binding signal (z-score)” value [44] was -0.581 and the “glycan array binding signal (z-score)” value [45] was -0.35.

From the supplement of paper PMC8728848
